± gives the standard deviation of the averaged measurements. This is one part of the list.
Test system: PfAP2-I AP2 domain 3 (GST-tagged)
Experiment: gcPBM binding intensity (ln(normalized median fluorescence intensity)); higher = stronger DNA binding
Outline: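 Probes on an Agilent 4 × 180k array were primer-extended, double-stranded and 36 bp long, taken from intergenic genomic regions, with negative controls added. GST-tagged P. falciparum DNA-binding domains from E. coli, about 25 μg on average, were applied to the array for 1 h in 1× PBS containing 1% milk, 0.2 mg/ml BSA, 0.5% salmon testes DNA and 0.03% Triton X-100. Binding intensity, obtained after Alexa488 anti-GST antibody detection and a 488 nm scan, is the highest Masliner-normalised natural-log median intensity across replicate spots of either probe orientation.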

Row | Sequence | gcPBM binding intensity (ln)
1 | CATGTATACTATAATACACACTATAAAATATACACC [CACACA_site7121] | 8.18 ± 0.45
2 | TAAAAAATTATAAAATGTACATAAAAAAAAAAAAAA [XGTACX_site3376] | 8.12 ± 0.45
3 | AAAGCACGCAAGAATACACACAAATATTATAAAAAA [CACACA_site6206] | 8.07 ± 0.69
4 | ATCCCAGTAATATATAGTACATAACTATAAGAGAAT [XGTACX_site6909] | 7.77 ± 0.57
5 | AGGAAAACAAAAGATGCATGCTAATTTTCCTCGCGT [TGCATGCA_site627] | 7.42 ± 0.95
6 | CTGAAGAAACTACAACGTACAAAATATGTATATATT [XGTACX_site3779] | 7.75 ± 0.66
7 | AAAATTAATAAATGAGAAAAAAGGATGAATAATGAG [CACACA_negctrl_site1614] | 8.2 ± 0.57
8 | AGAAAAAAAATGTATACACACAAATATAAAGAAGGA [CACACA_site3806] | 8.07 ± 0.67
9 | TTTATTAATTAAACCATACACACATAATTTTTTTAT [CACACA_site842] | 7.77 ± 0.45
10 | AAACGTGCGTATATGTGTACGCATATATATATATAT [XGTACX_site5252] | 10.3 ± 0.34
11 | TATGATGAGATAACAAAAGTTGTACTTTTTTTTTTT [CACACA_negctrl_site1172] | 7.86 ± 0.2
12 | CATATATACTCATACACACACACACCGACACAGACA [CACACA_site5026] | 8.12 ± 0.29
13 | ATGATATGGATAAATACACACAATATAATAATGTCT [CACACA_site1433] | 7.79 ± 0.69
14 | ATATTTTTTAGGGTCACACATACTTATTATATAAAT [CACACA_site4926] | 8.14 ± 0.58
15 | AATATTTAACACCTTATACACACTTTCTTCCTTTTT [CACACA_site785] | 7.96 ± 0.86
16 | AAAATGCATTTGATGTGTACGCATTATAAAGAACAA [XGTACX_site4203] | 8.41 ± 0.45
17 | CACAAACAAAGACACACACACACACGCACAAAAATG [CACACA_site7193] | 8.36 ± 0.49
18 | CAAATAGCTAGCTGTGCACACAAACATATTTTCCAA [CACACA_site879] | 9.66 ± 0.23
19 | ATGGAAATAAAAAAAAAAAAAAAAAAAAATATATAT [GTGCAC_negctrl_site67] | 8.04 ± 0.87
20 | TAGCCCACATTTAATGGTACAGTGAGTATATATATG [XGTACX_site8044] | 7.81 ± 0.41
21 | TAATATATTTATAGAGCATGCAACGTAATATTATTA [TGCATGCA_site863] | 7.86 ± 0.59
22 | TACATAAAATACCATGCATGCTAGTAAAAAAAAAAA [TGCATGCA_site650] | 7.87 ± 0.81
23 | AAATGACGAAATAAAATCATAAATTAAAATAAATAA [CACACA_negctrl_site655] | 7.33 ± 0.51

Row | Sequence | gcPBM binding intensity (ln)
24 | ATAGCATTTCACAAATGTACATAAAAAAATAAAAAT [XGTACX_site402] | 8.09 ± 0.52
25 | TAAAACAAAATGGTAACACACACATATATATATATA [CACACA_site8590] | 9.26 ± 0.49
26 | AAATGGAAATTAATATGTACATATTTATAAGTATGA [XGTACX_site1774] | 7.84 ± 0.5
27 | AATATATAAATATATATAAATAAATATATATATAAA [CACACA_negctrl_site49] | 6.99 ± 0.28
28 | TCTTTTCTTTTGTGTGTGCACATATAAGCATGAAAC [GTGCAC_site9910] | 10 ± 0.22
29 | ATGTTTCTATAGATTTGTACATATTTCATATGAATA [XGTACX_site1053] | 7.92 ± 0.54
30 | TTATTTTTTGTATGAACACACAACTTAATTATGATG [CACACA_site2448] | 7.82 ± 0.51
31 | TTTTACAAATATTTCTGTACACATTCTCATATAATT [XGTACX_site1974] | 8.13 ± 0.72
32 | TTTTTTAATTAATTACCTTTGAATGTGTATTAGGAC [GTGCAC_negctrl_site651] | 7.95 ± 0.29
33 | GAAAAGTATAAAAAACGTACAAGTTTTATTTTCACA [XGTACX_site4604] | 7.59 ± 0.55
34 | CCCCTATAAATAGGGTGTACTAATAAATATTTTTAA [XGTACX_site1244] | 8.96 ± 0.092
35 | ACGGGCGACACATAAGTGCGCAAAAAAAAAAAAATA [GTGCAC_site9688] | 9.39 ± 0.071
36 | TAAAATAAAAAGTTTACACACATATATAACTTTAAT [CACACA_site6456] | 7.51 ± 0.43
37 | AAAATACAGAAACACACACACACACCCATATATATA [CACACA_site3559] | 8.34 ± 0.78
38 | TTTTATAAAACATGTAGTACATGAAAAAAAAAATTT [XGTACX_site1626] | 8.04 ± 0.49
39 | GTATTCATTCCTTGAGTGCAATTGCAATAAATAAAA | 10.2 ± 0.13
40 | CATATTAAGATGTGTACACATTTTTATTTTTTTTTT [CACACA_site4425] | 7.8 ± 0.22
41 | ATGAATTTTTCTCTACAAAAGGATATAATAAAAATA [XGTACX_negctrl_site461] | 7.53 ± 0.45
42 | TTTTCTAATTAATATTGTACATAAATGTATATATAT [XGTACX_site4749] | 8.04 ± 0.54
43 | TAGTGTGCCAAATTAGCACACACATATATACATGAA [CACACA_site8910] | 9.04 ± 0.17
44 | GTTTTTATCATATCATGTACGTATTTTATTTTTTTT [XGTACX_site8643] | 8.21 ± 0.69
45 | CTTCTGGACAGGAATGCACACATTTTTTTTTCTTTT [CACACA_site1807] | 8.57 ± 0.57
46 | ATCAAAGATAAATTTACACACATATAAATATAAATA [CACACA_site7409] | 7.69 ± 0.28

Row | Sequence | gcPBM binding intensity (ln)
47 | TATATATATATATATTGTACAAAGATTAATATATAA [XGTACX_site8433] | 9.28 ± 0.46
48 | ACTTAATTTTTTTATTGTACATGTAAATGAGGGAAA [XGTACX_site6305] | 8.25 ± 0.26
49 | TATTTTAATAAGAATAAATGAAATGAAATGAAATAT [CACACA_negctrl_site823] | 7.93 ± 0.64
50 | ACATCCTATAAATAGAGTACGTAAATTATAATACAC [XGTACX_site5338] | 8.3 ± 0.2
51 | TAATATATTTTTAACATGCACTGTATTTTAATATAT | 8.76 ± 0.35
52 | TAATTAAAGTTATCTACACACCTTTATAGATATATA [CACACA_site7778] | 7.53 ± 0.46
53 | TATAAAACAAATATATGTACATATCATAGTATAATA [XGTACX_site2965] | 7.68 ± 0.47
54 | TCTGGATTGGATTACAAGAAAATAAAATATAAAATA [CACACA_negctrl_site122] | 7.59 ± 0.54
55 | TATACAAATATATATGCACACACATATATGTATATG [CACACA_site9007] | 8.96 ± 0.14
56 | AATATAATATACATATGTACATATATATATATATAT [XGTACX_site8218] | 9.2 ± 0.64
57 | TATAACACACAATGATGTACATTACATTATTTTTTA [XGTACX_site2076] | 7.84 ± 0.33
58 | ATATATATATATATGTGTACATATTTTTTTGAAGTG [XGTACX_site248] | 9.46 ± 0.3
59 | TAATATAAATGAAAGGTGCTTTTGCTTTCTTTTTTT | 8.7 ± 0.23
60 | TTTTCTATATAACAACGTACATTTATTATATTATAA [XGTACX_site6148] | 8.06 ± 0.47
61 | AAAAAAAAAAAAAATACACACACACCGATATATATA [CACACA_site8142] | 8.33 ± 0.62
62 | ATACATATAATAATATGTACATATAATTATATATAT [XGTACX_site913] | 8.21 ± 0.7
63 | TATTACATAATATATGTACACACGCAAATACTTATA [CACACA_site7994] | 7.91 ± 0.26
64 | CAAAAAAAGTTATACACACACACACGGATATAAATA [CACACA_site6619] | 8 ± 0.54
65 | TAACAACGATACAATTGTACAAATTATATATATATA [XGTACX_site4687] | 9.34 ± 0.099
66 | AGCAAGACGGGGTGCACACAAACTAATATGCCGAAT [CACACA_site159] | 10.8 ± 0.57
67 | AATAATATATTATATGCATGTGTATAATTTGATATA [TGCATGCA_site1058] | 8.04 ± 0.45
68 | CAAAGGAAATGGTGTACACAATTTTTCCTTTTTCGT [CACACA_site4800] | 7.94 ± 0.31
69 | TTTGGTTATTTGACCTGTACACATTTAATTATTTTT [XGTACX_site5170] | 7.86 ± 0.41

Row | Sequence | gcPBM binding intensity (ln)
70 | ATTATGAATTTAAGACGTACAAAAAATTTTTATTCA [XGTACX_site5682] | 7.8 ± 0.31
71 | ACAAGTATTCCTTTTGCACACCTTTCTGCACCTTAT [CACACA_site3873] | 10.8 ± 0.24
72 | ATTAAAATAATACGTACACACATGTATAATACATAT [CACACA_site1005] | 8.18 ± 0.21
73 | TTATAACATATAAACATGTTTCATCTTACGTATTTT [GTGCAC_negctrl_site694] | 7.83 ± 0.68
74 | TGTTATATCAATAATATATAATAATACCCTTCTTTT [CACACA_negctrl_site1682] | 7.28 ± 0.57
75 | ATAAGAATATATAGAGTGCGTTGAAGAATTATAATA | 9.89 ± 0.27
76 | ATATTTAATTTGTATGGTACAGTACGATCTTTCTTT [XGTACX_site5533] | 7.72 ± 0.48
77 | CCCTCAACGAATTTGAGTACACATTTTAAATGATAT [XGTACX_site7763] | 7.79 ± 0.36
78 | ATCGCAAGATTAATATAAGGAGAAACGTTTATATAT [GTGCAC_negctrl_site267] | 7.8 ± 0.57
79 | ATTTAAATAATATTCACACACAAAATTAAATTTTAA [CACACA_site6246] | 7.72 ± 0.4
80 | AAAAAATTAACCGTAACACACACACCGATATATATA [CACACA_site9312] | 8.18 ± 0.69
81 | AATCTAGGTATTTATACACACTAAAATAATATACGA [CACACA_site4515] | 7.82 ± 0.63
82 | AAAAAAAAAAGAAACACACACATATAGATTTATAAC [CACACA_site6927] | 7.69 ± 0.69
83 | GCTCTAATTAATATTTGTACACACATATTTAACCTA [XGTACX_site6808] | 8.21 ± 0.73
84 | TTTTTTTTTTTTTTTTGTACATAATTCCATATTTTT [XGTACX_site1789] | 8.04 ± 0.65
85 | TGATCTTTACACATATTATATATATATAAAAAAAAA [XGTACX_negctrl_site360] | 7.8 ± 0.42
86 | TTATACTGTACAAAAAGAATAGCAGTATAACAAAAA [CACACA_negctrl_site755] | 8 ± 0.69
87 | AAAAAAAAATCATATTGTACGTAAAAAAAAAAAAAA [XGTACX_site476] | 8.22 ± 0.38
88 | AATATGTTTTGTTAGGTTGGTGTTGGTAGAATGTTT [CACACA_negctrl_site1563] | 7.79 ± 0.51
89 | ACAGGATTGGTTCAAACACACATATTATAGGACTAT [CACACA_site6455] | 7.75 ± 0.5

Reference: the supplement of paper PMC11417369
